From the supplement of paper PMC4604168 (melanoma cell lines)
Some of the results follow. Repeats are few or missing, and single values can be far off.

Tests used:
Experiment in all cases: cell count relative to DMSO control; melanoma cells; higher = more viable cells
Conditions in all cases: library dose: standard library concentration; 72 h
SkMel28 = tested on: SkMel28
SkMel2 = tested on: SkMel2
SkMel30 = tested on: SkMel30
SkMel5 = tested on: SkMel5
UACC257 = tested on: UACC257
UACC62 = tested on: UACC62
WM115 = tested on: WM115
WM1716 = tested on: WM1716
WM3526 = tested on: WM3526
WM1745 = tested on: WM1745
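Also: cells treated in 1,536-well plates, then fixed and DAPI-stained, with nuclei counted from automated high-throughput microscope images.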

Row | Structure (SMILES) | cell count (SkMel28) | cell count (SkMel2) | cell count (SkMel30) | cell count (SkMel5) | cell count (UACC257) | cell count (UACC62) | cell count (WM115) | cell count (WM1716) | cell count (WM3526) | cell count (WM1745)
1 | NC(=O)c1ccc(N(C(N)=O)c2c(F)cccc2F)nc1-c1ccc(F)cc1F + CCN(CC)CCCCNc1ncc2cc(-c3cc(OC)cc(OC)c3)c(NC(=O)NC(C)(C)C)nc2n1 [PD173074] (first compound 2 µM, partner dose 0.5 µM) | 159% | 143% | 110% | 133% | 118% | 105% | 121% | 120% | 123% | 
2 | NC(=O)c1ccc(N(C(N)=O)c2c(F)cccc2F)nc1-c1ccc(F)cc1F + CC(C)(C)c1cnc(CSc2cnc(NC(=O)C3CCNCC3)s2)o1 [SNS-032] (first compound 2 µM, partner dose 0.05 µM) | 88.5% | 80% | 80.1% | 57.6% | 94.3% | 76.2% | 90.1% | 83.2% | 87.1% | 72.4%
3 | Cc1ccc(NC(=O)c2cccc(N(C)C)c2)cc1NC(=O)c1ccc(O)cc1 + COc1cc2c(Oc3ccc4[nH]c(C)cc4c3F)ncnc2cc1OCCCN1CCCC1 [cediranib] (first compound 10 µM, partner dose 2 µM) | 78.8% | 85.2% | 97.1% | 86.4% | 87.2% | 83.6% | 95% | 146% | 75% | 99.3%
4 | NC(=O)c1ccc(N(C(N)=O)c2c(F)cccc2F)nc1-c1ccc(F)cc1F + O=S(=O)(c1ccccc1)N(CC(F)(F)F)c1ccc(C(O)(C(F)(F)F)C(F)(F)F)cc1 [T0901317] (first compound 2 µM, partner dose 7 µM) | 75.8% | 97% | 99.1% | 70.9% | 78% | 71.6% | 91.1% | 93.3% | 93.3% | 
5 | NC(=O)c1ccc(N(C(N)=O)c2c(F)cccc2F)nc1-c1ccc(F)cc1F + O=C(Nc1cccc(Cl)c1)Nc1ncc(CCNc2ncnc3ccsc23)s1 [SNS314] (first compound 2 µM, partner dose 0.004 µM) | 39.4% | 80% | 92.2% | 72.7% | 79.2% | 65.7% | 38.6% | 43.2% | 65.2% | 70.6%
6 | NC(=O)c1ccc(N(C(N)=O)c2c(F)cccc2F)nc1-c1ccc(F)cc1F + COc1ccc2c(c1)CCC1C2CCC2(C)C(NCCCCCCN3C(=O)C=CC3=O)CCC12 [U73122] (first compound 2 µM, partner dose 2 µM) | 90% | 87.1% | 70.9% | 84.7% | 89.2% | 72.5% | 84.9% | 71.6% | 88.5% | 
7 | CC(C)(C)c1cnc(CSc2cnc(NC(=O)C3CCNCC3)s2)o1 + O=S(=O)(c1ccccc1)N(CC(F)(F)F)c1ccc(C(O)(C(F)(F)F)C(F)(F)F)cc1 [T0901317] (first compound 0.05 µM, partner dose 7 µM) | 46.7% |  | 82.6% | 54% | 79.1% | 66.5% | 83.3% | 75.3% | 67.2% | 58.9%
8 | CCCCCCCCc1ccc(CCC(N)(CO)CO)cc1 [fingolimod] + Cc1cc([N+](=O)[O-])ccc1NS(=O)(=O)c1cc(Cl)ccc1Cl [FH535] (first compound 10 µM, partner dose 5 µM) | 4.97% | 24.1% | 11.4% | 63.4% | 40.6% | 32.3% | 40% | 45.2% | 37.9% | 
9 | NC(=O)c1ccc(N(C(N)=O)c2c(F)cccc2F)nc1-c1ccc(F)cc1F + O=C1NC(=O)/C(=C/c2ccc(-c3ccc(F)cc3O)o2)S1 [AS252424] (first compound 2 µM, partner dose 5 µM) | 81.5% | 94.5% | 94% | 71.6% | 89.4% | 131% | 102% | 118% | 101% | 
10 | CCCCCCCCc1ccc(CCC(N)(CO)CO)cc1 [fingolimod] + Cc1ccc(NC(=O)c2cccc(N(C)C)c2)cc1NC(=O)c1ccc(O)cc1 [ZM336372] (first compound 10 µM, partner dose 10 µM) |  | 29.4% | 10.3% | 29% | 61.5% | 13.8% | 8.35% | 22.5% | 8.88% | 41%
11 | CCCCCCCCc1ccc(CCC(N)(CO)CO)cc1 [fingolimod] + Oc1cc(-c2nc(-c3ccccc3)[nH]c2-c2ccncc2)ccc1Cl [L779450] (first compound 10 µM, partner dose 1 µM) | 1.09% | 0.188% | 17.9% | 35.5% | 66.5% | 22.5% | 12.2% | 35.6% | 15.4% | 
12 | CCCCCCCCc1ccc(CCC(N)(CO)CO)cc1 [fingolimod] + CC(C)(C)c1cnc(CSc2cnc(NC(=O)C3CCNCC3)s2)o1 [SNS-032] (first compound 10 µM, partner dose 0.05 µM) |  | 0.483% | 9.73% | 53.5% | 61.9% | 10.6% | 13.2% | 18.2% | 21.9% | 1.41%
13 | CCCCCCCCc1ccc(CCC(N)(CO)CO)cc1 [fingolimod] + O=C(Nc1ccccc1)c1cc([N+](=O)[O-])ccc1Cl [GW9662] (first compound 10 µM, partner dose 10 µM) | 1.68% | 0.173% | 7.17% | 41.5% | 64% | 19.9% | 18.5% | 21.3% | 23% | 
